Test results: PubChem BioAssay AID651820 (National Center for Advancing Translational Sciences (NCATS), 2012)
The campaign covered roughly 340,000 compounds. About 12,000 (3.5%) were called active. The shares of active, inactive and inconclusive entries below differ from those in the screen. Calls follow the shape of the dose curve; as a rule, active = well fitted inhibition curve with a large enough effect; inconclusive = small, poorly fitted or top-dose-only effect, or another doubt; inactive = no such curve, though single readings can be large or run the other way. No potency is given beside an inconclusive call; the fits are too rough.

Experiment: qHTS Assay for Inhibitors of Hepatitis C Virus (HCV)
Conditions: Huh7.5.1 HCVcc-Cre (HCVcc is cell-culture hepatitis C virus) infection, luciferase reporter, 44 h; series mostly up to 41.8 µM
Procedure, shortened: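 Luciferase read-out (15 sec integration) after a 15 min room-temperature substrate step quantifies HCVcc-Cre infection. Cells, 1,000 per well, had compound added 4 h post-plating, then virus at ~0.5 moi, and were cultured 44 h.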
Potency is read from the fitted curve at half-maximal effect; tags tell the direction and shape of the fitted curve.

**Q.** Which Potency does the source give for CCCCn1c(SCC(=O)Nc2cc(C(F)(F)F)cc(C(F)(F)F)c2)nnc1C(CC)N(C)C (stereo not drawn) here?
**A.** inconclusive [inhibitor, partial curve]

**Q.** Which Potency does the source give for O=C(CCl)Nc1ccccc1Sc1ccc(Cl)cc1 here?
**A.** inconclusive [inhibitor, single point]

**Q.** With CCOc1ccc(NC(=O)COC(=O)CCN2C(=O)C3CC=CCC3C2=O)cc1OCC (stereo not drawn) as the compound, how does the Potency read?
**A.** inconclusive [inhibitor, partial curve, poor fit]

**Q.** For CCc1ccc(N(CC(=O)Nc2sc3c(c2C(=O)OC)CCCC3)S(C)(=O)=O)cc1, which Potency is on record?
**A.** inconclusive [inhibitor, single point]

**Q.** For CCCCCCSc1ccc([C@H]2N[C@@](C)(C(=O)OC)[C@H]3C(=O)N(CC)C(=O)[C@@H]23)cc1, which Potency is on record?
**A.** inconclusive [inhibitor, single point]

**Q.** Which Potency does the source give for Cc1cc(S(=O)(=O)NCCN2CCOCC2)ccc1Cl here?
**A.** inactive

**Q.** With Cc1noc(C)c1CSCC(=O)Nc1cc(Cl)ccc1N1CCCCC1 as the compound, how does the Potency read?
**A.** active: 10 µM

**Q.** With COc1ccc(/C(N)=N/OC(=O)CSc2ccc(C)cc2)cc1OC as the compound, how does the Potency read?
**A.** inconclusive [inhibitor, single point]

**Q.** For CC(=O)c1sc(NC(=O)C2(F)C(F)(F)C(F)(F)C(F)(F)C(F)(F)C2(F)F)nc1C, which Potency is on record?
**A.** active: 10 µM

**Q.** With COc1ccc2cc(CN(Cc3cccs3)Cc3nnnn3Cc3ccccc3)c(=O)[nH]c2c1 as the compound, how does the Potency read?
**A.** inactive

**Q.** For O=C(NCc1cccnc1)c1ccc(COc2ccccc2Br)cc1, which Potency is on record?
**A.** inconclusive [inhibitor, partial curve]

**Q.** For CCOC(=O)N1CCN(C(=O)c2ccc3c(c2)sc2nc(-c4ccccc4)cn23)CC1, which Potency is on record?
**A.** inconclusive [inhibitor, full curve, poor fit]

**Q.** For S=C(NNc1ccc2ccccc2c1)NC1CCCCC1, which Potency is on record?
**A.** inactive

**Q.** Which Potency does the source give for Cc1nc2ccccc2nc1SCC(=O)N1CCC(C)CC1 here?
**A.** inconclusive [inhibitor, partial curve]

**Q.** For CC(C)CCn1c(SCC(=O)NC2CC2)nc2cc(Cl)ccc2c1=O, which Potency is on record?
**A.** inactive

**Q.** Which Potency does the source give for CCC(C)Sc1cc(-c2nc3ccc(C)cn3c2NCc2ccccc2)ccc1OC (stereo not drawn) here?
**A.** active: 10 µM

**Q.** Which Potency does the source give for CCN(CC)C(C)C(=O)Nc1c2c(cc3c1CCC3)CCC2 (stereo not drawn) here?
**A.** inactive

**Q.** With Cc1ccc(NC(=O)C2Cc3ccccc3O/C2=N\O)cc1C (stereo not drawn) as the compound, how does the Potency read?
**A.** inconclusive [inhibitor, partial curve]

**Q.** Which Potency does the source give for O=C(CC(C(=O)O)c1cccc(Cl)c1Cl)c1ccccc1 (stereo not drawn) here?
**A.** inactive

**Q.** For Cc1ccc2c(c1)N(C(=O)CCC(=O)NC1CCCCCC1)CCO2, which Potency is on record?
**A.** inactive

**Q.** For Clc1ccc(/C=C/c2nc3ccccc3[nH]2)cc1, which Potency is on record?
**A.** inconclusive [inhibitor, single point]

**Q.** Which Potency does the source give for CC(=O)c1ccc(OCCCC(=O)Nc2ccc(C)c(S(=O)(=O)N(C)C)c2)cc1 here?
**A.** inconclusive [inhibitor, partial curve, poor fit]

**Q.** For CCCOc1ccc(-c2cc(C(=O)NCC3CCCO3)c3ccccc3n2)cc1 (stereo not drawn), which Potency is on record?
**A.** inconclusive [inhibitor, single point]

**Q.** With Cc1ccn2cc(-c3ccc(NS(=O)(=O)c4ccccc4)cc3)nc2c1 as the compound, how does the Potency read?
**A.** active: 11.2 µM

**Q.** With CC(=NNC(=S)N1CCCCCC1)c1ccccn1 as the compound, how does the Potency read?
**A.** inconclusive [inhibitor, partial curve]

**Q.** For COc1ccc(-c2oc3ccccc3c2C#CC(C)(C)O)cc1, which Potency is on record?
**A.** active: 7.94 µM

**Q.** For COC(=O)c1ccc(NC(=O)COC(=O)COc2cccc3c2OC(C)(C)C3)cc1, which Potency is on record?
**A.** inactive

**Q.** For CCOc1ccccc1NC(=O)C1CCCN1C(=O)c1cccs1 (stereo not drawn), which Potency is on record?
**A.** inconclusive [inhibitor, single point]

**Q.** Which Potency does the source give for Cc1[nH]nc(-c2ccc(O)c(C)c2O)c1Oc1ccccc1 here?
**A.** inconclusive [inhibitor, single point]

**Q.** With CCOC(=O)C1=C(c2ccccc2)NC(SCC(=O)Nc2ccccc2C)=C(C#N)C1c1ccco1 (stereo not drawn) as the compound, how does the Potency read?
**A.** inconclusive [inhibitor, single point]

**Q.** For O=C(NCc1ccco1)c1ccc(COc2cc(Cl)ccc2Cl)cc1, which Potency is on record?
**A.** inconclusive [inhibitor, partial curve]

**Q.** With CC(C)n1c(SCC(=O)Nc2ccccc2)nc2c1c(=O)n(C)c(=O)n2C as the compound, how does the Potency read?
**A.** inconclusive [inhibitor, single point]

**Q.** Which Potency does the source give for Fc1ccccc1N1CCN(C2CCCN(Cc3cccc(C(F)(F)F)c3)C2)CC1 (stereo not drawn) here?
**A.** inconclusive [inhibitor, partial curve]

**Q.** With O=C1NC(Nc2nc3ccccc3s2)(C(F)(F)F)C(=O)N1C1CCCCC1 (stereo not drawn) as the compound, how does the Potency read?
**A.** inconclusive [inhibitor, single point]

**Q.** Which Potency does the source give for COc1ccc2c(OC)c3ccoc3nc2c1OC here?
**A.** inconclusive [inhibitor, partial curve, poor fit]

**Q.** With Nc1nc2c(s1)C(=O)CC(c1ccccc1)C2 (stereo not drawn) as the compound, how does the Potency read?
**A.** inactive

**Q.** With O=C(CSc1ncnc2c1nnn2Cc1ccccc1)NC1CCCCC1 as the compound, how does the Potency read?
**A.** inactive

**Q.** Which Potency does the source give for CN(CC(=O)Nc1cccc(F)c1)C(=O)Cn1c(=O)oc2ccccc21 here?
**A.** inactive

**Q.** For CCOc1ccc(Nc2ncnc3ccc([N+](=O)[O-])cc23)cc1, which Potency is on record?
**A.** inconclusive [inhibitor, partial curve]

**Q.** With COc1cc(NC(=O)COc2cc(O)c3c(c2)OC(C)(C)CC3=O)cc(OC)c1OC as the compound, how does the Potency read?
**A.** active: 0.316 µM

**Q.** Which Potency does the source give for CCCc1nc2oc3c(NCCN4CCOCC4)ncnc3c2c2c1CCCC2 here?
**A.** inconclusive [inhibitor, full curve]

**Q.** With Cc1nn(Cc2ccccc2)c(C)c1NC(=O)CSc1n[nH]c(C)c1[N+](=O)[O-] as the compound, how does the Potency read?
**A.** inactive

**Q.** With Cn1cccc1Cc1nnc(SCC(=O)Nc2ccc3c(c2)OCO3)n1CCc1ccccc1 as the compound, how does the Potency read?
**A.** inactive

**Q.** For COc1cccc(NC(=S)N(CCCN2CCOCC2)Cc2cn(C)c3ccccc23)c1, which Potency is on record?
**A.** inconclusive [inhibitor, partial curve]

**Q.** With Cc1nc(C)c(-c2csc(Nc3ccc(O)cc3C)n2)s1 as the compound, how does the Potency read?
**A.** inactive

**Q.** For Oc1ccc(N=Nc2cccc(Cl)c2)cc1C=Nc1ccc(N2CCOCC2)cc1, which Potency is on record?
**A.** inconclusive [inhibitor, single point]

**Q.** Which Potency does the source give for O=C(CCNS(=O)(=O)c1ccccc1F)N1CCN(C/C=C/c2ccccc2)CC1 here?
**A.** inconclusive [inhibitor, partial curve]

**Q.** With O=C(c1ccccn1)N1CCN(S(=O)(=O)c2ccccc2)CC1 as the compound, how does the Potency read?
**A.** inactive

**Q.** Which Potency does the source give for CC(C(=O)NC1C=CS(=O)(=O)C1)N1C(=O)/C(=C/c2cccc(Cl)c2)SC1=S (stereo not drawn) here?
**A.** inactive

**Q.** With CC1(c2ccc(OC(F)F)cc2)NC(=O)N(CC(=O)NC2CCCC2)C1=O (stereo not drawn) as the compound, how does the Potency read?
**A.** inconclusive [inhibitor, single point]

**Q.** Which Potency does the source give for CSc1nsc(SCC(=O)Nc2ccccc2C(N)=O)n1 here?
**A.** inconclusive [inhibitor, partial curve, poor fit]

**Q.** With CC(C)c1ccc(NC(=O)c2n[nH]c(=O)c3ccccc23)cc1 as the compound, how does the Potency read?
**A.** inactive

**Q.** Which Potency does the source give for CON(C)S(=O)(=O)c1cccc(C(=O)Nc2ccc(S(=O)(=O)NC3=NCCCCC3)cc2)c1 here?
**A.** inconclusive [inhibitor, single point]

**Q.** With Nc1ccc(C(=O)N/N=C/c2cn(Cc3ccccc3F)c3ccccc23)cc1 as the compound, how does the Potency read?
**A.** inconclusive [inhibitor, single point]

**Q.** With O=C(CSc1ccccn1)Nc1ccc2[nH]c(=O)[nH]c2c1 as the compound, how does the Potency read?
**A.** inactive

**Q.** With COc1ccc(N(CC(=O)NCc2cccs2)S(=O)(=O)c2cccc(C)c2)cc1 as the compound, how does the Potency read?
**A.** inconclusive [inhibitor, partial curve]

**Q.** Which Potency does the source give for O=C(Nc1cc(Cl)ccc1-n1cncn1)c1ccco1 here?
**A.** inactive

**Q.** Which Potency does the source give for Cc1nn2c(NCCN(C)C)c3c(nc2c1-c1ccccc1)CCC3 here?
**A.** active: 12.6 µM

**Q.** With CC(N=Cc1nc(-c2ccccc2)oc1O)c1ccccc1 (stereo not drawn) as the compound, how does the Potency read?
**A.** inconclusive [inhibitor, partial curve]

**Q.** Which Potency does the source give for CCN1CC2=C(OC(N)=C(C#N)C2c2cccs2)/C(=C\c2cccs2)C1 (stereo not drawn) here?
**A.** active: 14.1 µM

**Q.** With Cc1c(NC(=O)Nc2cccs2)cccc1[N+](=O)[O-] as the compound, how does the Potency read?
**A.** inconclusive [inhibitor, partial curve]

**Q.** Which Potency does the source give for COc1ccc(-c2n[nH]c(=S)o2)c(OC)c1 here?
**A.** inconclusive [inhibitor, single point]

**Q.** With Cc1cc(C)n(CCc2nc(-c3ccc(-c4ccccc4)cc3)cs2)n1 as the compound, how does the Potency read?
**A.** inconclusive [inhibitor, partial curve]

**Q.** Which Potency does the source give for CSc1nc2ccc(NC(=O)c3ccc(=O)n(C)n3)cc2s1 here?
**A.** inconclusive [inhibitor, single point]

**Q.** With CC1CCCCC1NC(=O)Cn1c(=O)oc2cc(S(=O)(=O)N3CCCC3)ccc21 (stereo not drawn) as the compound, how does the Potency read?
**A.** inactive

**Q.** For Cn1c(SCc2ccc([N+](=O)[O-])cc2)nc2c(c1=O)SCC2, which Potency is on record?
**A.** inconclusive [inhibitor, full curve]

**Q.** For CCC(C)(C)n1nnnc1C(c1ccc(OC)cc1)N1CCN(C(=O)c2ccco2)CC1 (stereo not drawn), which Potency is on record?
**A.** inactive

**Q.** Which Potency does the source give for COc1ccc(CNC(=O)c2cc3cccc(O)c3oc2=N)cc1 here?
**A.** inactive

**Q.** Which Potency does the source give for O=C(NNS(=O)(=O)c1ccc(Br)cc1)c1csnn1 here?
**A.** inactive

**Q.** For Cc1cccc2cc(CN(Cc3ccco3)S(=O)(=O)c3ccc4c(c3)OCCO4)c(=O)[nH]c12, which Potency is on record?
**A.** inconclusive [inhibitor, partial curve, poor fit]

**Q.** For COc1ccc(CCNc2nc(-c3sc(C)nc3C)cs2)cc1OC, which Potency is on record?
**A.** active: 12.6 µM

**Q.** Which Potency does the source give for COc1ccc(C(=O)Nc2ccc3ccccc3n2)c(OC)c1OC here?
**A.** inconclusive [inhibitor, partial curve, poor fit]

**Q.** Which Potency does the source give for COc1ccc(OC)c(NC(=O)Nc2nnc(N3CCCCC3C)s2)c1 (stereo not drawn) here?
**A.** inconclusive [inhibitor, single point]
